In the supplement of paper PMC11417369:
This is one part of the list.

The sequences below were run on PfHDP1 homeodomain (GST-tagged) (assay: gcPBM binding intensity (ln(normalized median fluorescence intensity)); higher = stronger DNA binding).
How it was run: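 Binding of GST-tagged P. falciparum DNA-binding domains, expressed in E. coli and used at about 25 μg on average, was carried out for 1 h in 1× PBS containing 1% milk, 0.2 mg/ml BSA, 0.5% salmon testes DNA and 0.03% Triton X-100. The target was an Agilent 4 × 180k array of primer-extended double-stranded 36-bp intergenic genomic probes plus negative controls, read with Alexa488 anti-GST antibody at 488 nm. Binding intensity is the highest Masliner-normalised natural-log median intensity across replicate spots of either probe orientation.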

| Sequence | gcPBM binding intensity (ln) |
| --- | --- |
| TTTTTTTTTTTAAATTGTACTTATTTTATATTATAT [XGTACX_site1077] | 6.08 |
| AGAAAAATTATATATACACACTTATATTTATATATA [CACACA_site5555] | 6.3 |
| TACGTTCTGATATATACACACCTGGTATTAATTATG [CACACA_site7113] | 6.76 |
| TATTATATTTATATTTGTACTTAAAATATTATACAC [XGTACX_site2881] | 6.42 |
| AGTATACGCAAACACACACACACAAAAAAAAAAAAA [CACACA_site426] | 6.52 |
| AAATAAGAAAATCATAGTACATAGGAATAGAAGAAC [XGTACX_site3135] | 7.49 |
| TTAAAAAAAGAAAAAAAAAAAAAAAAAAAAAAACAT [CACACA_negctrl_site475] | 6.21 |
| TATAAAAATATTTCTACACACATTAATATTTATATA [CACACA_site6661] | 6.66 |
| TATTATATTCTGCTTACACACATATATATATATATA [CACACA_site3060] | 9.28 |
| GTTCTAAATATTATTGCATGTTGCACGTTTCTCTGT [TGCATGCA_site159] | 8.26 |
| GTGATAATTGCTTGGTGTACCCACATATATATATAT [XGTACX_site1636] | 9.06 |
| CATACACCCATACATACACACATACATATATATATA [CACACA_site8591] | 8.98 |
| ATATAATGTTTCACATGTACAAACAACACAAAAAAA [XGTACX_site1899] | 6.99 |
| AATTATGAAAAATCAAGTACAAACAAAATCATAATT [XGTACX_site5665] | 6.83 |
| AAAGAGAAATTTAAATGTACATTTGTTCTAAGTGTA [XGTACX_site3602] | 6.34 |
| AAAAGATATATTATATGTACTAATTATATGATAAAT [XGTACX_site4192] | 6.32 |
| TATAATAATAATAATAGTACGTATTATTAAAAAACT [XGTACX_site10] | 6.58 |
| ATATTACACATATATGCACACATTGTAGTTATTTAT [CACACA_site8843] | 8.92 |
| CAATTACAAAAGAAATGTACTCGTAATAAATAAATA [XGTACX_site1126] | 6.67 |

| Sequence | gcPBM binding intensity (ln) |
| --- | --- |
| TGAAATTTTTATACATGTACAAAATTAAATATAACA [XGTACX_site7324] | 6.45 |
| TTTGTTCATATTATTGTGCACTTAAACGTAACAAAA [GTGCAC_site9505] | 10.1 |
| ACCCTATATGTAACTACACACCGCATATTGTTTACT [CACACA_site3071] | 7.22 |
| TTTATATTCTTAAGTGTGCACTATATATATATATAT [GTGCAC_site9719] | 10.5 |
| AATGTAGCATTTTATCGTACACTTAATACAAAAAAG [XGTACX_site6214] | 6.56 |
| ATGTATGTATATACTTGTACATATTCATATTAGTAT [XGTACX_site1118] | 6.26 |
| TAATAAGTAAAAAAATGTACCCGTTAGGTTTAATAA [XGTACX_site638] | 6.01 |
| AAAATAATATTTAATACACACACCAGTTCTGCAAAT [CACACA_site3736] | 7.06 |
| ACAAAAAGGTAATTTACACACTGCATATAGGAATAA [CACACA_site2929] | 6.92 |
| AGAAATATATATATATATATATGTGACAATATTTGT [TGCATGCA_negctrl_site282] | 7.02 |
| TTTTTCTCTCTCTTATTATACAACAACAAAAAAAAA [GTGCAC_negctrl_site178] | 6.41 |
| TTTTTTTATTTTATTTTATTATCTTATGTATCACAA [CACACA_negctrl_site1755] | 6.48 |
| AAAAATAAAATATATACATGCATATACATATTATAT [TGCATGCA_site668] | 6.31 |
| TGTTATATTTAATATAGTACATATTATTTTATATAT [XGTACX_site70] | 6.42 |
| TATTCTATATTTCTATTTAGAAAACATCCCAGTGTG [GTGCAC_negctrl_site184] | 6.26 |
| ATGTATATAATAAGAACACACATATATTTAATTTAA [CACACA_site2941] | 6.16 |
| ATACATATATACATACGTACTTATATACATATGTGC [XGTACX_site5268] | 6.49 |
| AGAAAATTAAAAAGAACACACAAATATATATAGAAT [CACACA_site3592] | 6.91 |
| ATTTATATGCACCATTGTACGTTTTATAAAGTTTGG [XGTACX_site3755] | 10.5 |

| Sequence | gcPBM binding intensity (ln) |
| --- | --- |
| TATCATGTCTGTATTTCACACACGGATAATCATTTA [CACACA_site920] | 6.14 |
| TAAGTTCACAAAAAAAAAAAAAAATAAAGAAATAAA [CACACA_negctrl_site825] | 6.06 |
| AAATTATTTCCGTGTACACATAAATATATATTTTAT [CACACA_site5121] | 7.18 |
| TTATTATGCTGAGTACGTACTTATATAAGAATAGCA [XGTACX_site2955] | 6.88 |
| TAAAATATTACGTGTACACATAAATAAAAATAAAAA [CACACA_site5066] | 7.77 |
| TTTTATATTCCACAAAAAATTATATAATAATAGAAC [CACACA_negctrl_site1741] | 6.79 |
| ATGCTTTTATAAATAATTAAAAAAAAAAAAAAAAAA [TGCATGCA_negctrl_site533] | 6.15 |
| CTCAAATAATTTTTTACACACATTATTTGAAATAAG [CACACA_site1290] | 6.51 |
| TTTTTTTTTAATATTTGTACACAACATGAAACATTT [XGTACX_site473] | 6.72 |
| GTAATATATACAAAATGTACAAAACAATAACATGAT [XGTACX_site8575] | 6.79 |
| ATCCAAACAAATAAAACATGCATAATATATATATAT [TGCATGCA_site766] | 8.76 |
| ACAAAATATACAAAATGTACAAAATTTACAAAATGT [XGTACX_site3544] | 6.25 |
| AAAAAAAAAAAGCACACACACATATGTGTATTTATA [CACACA_site6578] | 6.98 |
| TACTAGCAAATACATACACACACACCCATATACATA [CACACA_site9163] | 7.05 |
| AATAGAAAAAAATAAGTGCATTTTGGTATTCATCAT [GTGCAC_site9614] | 9.01 |
| GATATTGAGAAAGGGTGTACAAGATATTATACTATA [XGTACX_site3598] | 6.47 |
| TTTTATGTAATTATTTGTACATATGCCTCTTAAACT [XGTACX_site748] | 6.18 |
| ACATAAATAATAAAAACACACATATGTACATATATA [CACACA_site1913] | 6.61 |
